The source holds several records for some structures; these can differ, active in one and inactive in another.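 Negative percent growth values reflect cell death: -40 means 40% of the cells present at the start died, and -100 means all died.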 For part of its entries the source gives two or more results. They are shown here; other results are not. The calls were made as follows: active = growth percent below 10; inactive = the rest. The source may hold further records. The screen tested this drug many times, at its own concentration, as given; each value is one run. Marks such as (2×) stand for listed records that agree.
Experiments:
[1] = system: SK-OV-3 ovarian; assay: NCI-60 one-dose screen, 48 h (100 = growth as untreated, 0 = no growth, -100 = all killed); details: 25 µM
[2] = system: IGROV1 ovarian; assay: as above; details: 0.25 µM

For `COc1cccc2c1C(=O)c1c(O)c3c(c(O)c1C2=O)C[C@@](O)(C(=O)CO)C[C@@H]3OC1CC(N)C(O)C(C)O1` (stereo not given in full), the growth ([1]; runs of 1997) was “active: 8.81, -16.9, -20, 0.707, -31.4, 7.57, 8.04, 0.337, -19.5, -2.93 (2×), 3.56, 5.37, 8.54, 1.28, 8.56, -1.71, 7.02 (2×), -10.4, -9.89, -16.4, 5.63, -3.92, -34.8, -6.39, -14.7, -31, 5.39, -1.7, -3.57, 9.41, -5.65, -13.6% and inactive: 15.3, 14.1, 10.3, 15.5 (2×), 17, 11.2%”, the growth ([1]; runs of 1998) was “inactive: 18.1, 25, 20, 13.6, 12.9% and active: -21.3, -4.83, -12.6, 9.94, -1.55, -34.6, -1.57, -22.7, -24.1, -7.16, -7.72, -7.79, -30.8, -30.4, -15.2, -2.4, -10.4, -10.2, 1.21, -35.2%” and the growth ([1]; runs of 1999) was “active: 7.25, -12.5, -64.2, 2.13, -24.1, 1.89, 3.35, -9.09, -16, -56.1, 5.17, 4.79, -77.7, -63.2, -35.8% and inactive: 30.4%, 13%”. For the same compound, the growth ([1]; runs of 2000) was “active: 2.39, -100, 2.33, -55.9%”, the growth ([2]; runs of 2006) was “inactive: 36.8%, 31.9%” and the growth ([2]; runs of 2007) was “inactive: 46, 18.6, 17 (2×), 30.8, 35.5, 33.1, 24.7, 30.9, 29.9, 27.9, 41.7, 56.2, 54.9, 64.2, 64.1, 17.2, 42.7, 60.6, 56.1, 22.4, 20.7, 31.8, 74.2, 54.5, 49.2, 63.6, 61.2, 52.3, 49, 74.6% and active: -44.6, -23.2, -31.6, -0.881, -4.67, -6%”. For the same compound, the growth ([2]; runs of 2008) was “active: -14.4, -1.83, 3.24, -3.82, -2.63, 2.84, 1.99, 2.17, 9.39% and inactive: 45.1, 14.2, 13.4 (2×), 28.7, 38.4, 46.8, 56.2, 16.7, 22.7, 30.6, 32.5, 55.2, 63, 24.5, 47.3, 43.8, 23.8, 17.3, 18.5, 16.4, 43.7, 55.9, 59.8, 37.3, 22.8 (2×), 49.1, 75.7, 28.3, 34.4, 15.6, 18.9, 19.9, 61.2, 32.1, 44.9, 34.1%”, the growth ([2]; runs of 2009) was “inactive: 49.9, 33.9, 79.6, 74.3, 68.7, 77.2, 49.8 (2×), 53.8, 56.9, 58.7, 69.8, 38, 51, 40.8, 45, 49.7, 47.7, 44.9, 60.1, 61.9, 44.6, 38.9, 31.4, 28.7, 29.4, 23.2, 51.3, 20.1, 37.6, 40.6, 52.6, 20.2, 37.9, 16.2, 37.4, 25.4, 32.2, 19.2, 48.3, 60.7, 37.7, 40.9, 28.9, 43.5 (2×), 48.1, 41.1, 51.6, 31.1, 53.4, 64.1, 27.8, 48.7, 69, 47.9, 46.9, 36.5, 53.3, 42.4, 36.6, 59.2, 57.9, 62.8% and active: 8.1, -6.45, -2.89, -6.65, 5.41%” and the growth ([2]; runs of 2010) was “inactive: 47.6, 58.9, 48, 31.5, 50.7, 44.7, 24.2, 48.5, 21, 52.2, 40.1, 58.6, 45.2, 13.3, 43.3, 34.2, 46.8, 30.7, 37.9, 45.9, 47.1, 41.1, 55.9, 41.9, 41.5, 25.3, 26.7, 41.7 (2×), 29.2, 29.1, 30.8, 12.7, 29.3, 17.9, 41.3, 49.5, 46.6, 55.6, 44.2, 43.1, 50.3, 44.9, 44.1, 38.9% and active: 0.608%”. For the same compound, the growth ([2]; runs of 2011) was “inactive: 38.2, 53 (2×), 44.7, 46.9, 58.3, 70.9, 61.2, 46.3, 41, 59.7, 63.1 (2×), 57.1, 59, 52.9, 64.6, 64.7, 59.9, 52.5 (2×), 57 (2×), 65.3, 57.2, 47.7, 49.1, 45.5, 39.7, 25.3, 39.1, 37.1, 50.1, 43.7, 48.7 (2×), 40.6, 49.3, 60.6, 52.6, 51, 40.5, 44.5, 48.3, 42, 39, 51.3, 42.3, 34.1, 45.2, 50.4, 62.5, 61.1, 38.7, 58.5%”, the growth ([2]; runs of 2012) was “inactive: 52.9, 28.1, 61.9, 53.4, 44.9, 60 (2×), 70.9, 75.6, 54.4, 54.9, 56.5, 41.9, 63.1, 49.2, 50.9, 61.1, 49.3, 51.1, 56.3 (2×), 59.9, 51.2, 63.7, 58.8, 55.6, 67.1, 39.7, 43.3, 69.5, 69.6, 68.6, 57.5, 57.6, 55.3, 46, 60.1 (2×), 49.6, 52.5, 63.9, 60.9, 62.1, 52.6, 62.5, 50, 46.5, 45.8, 61.3, 55.4, 65.5, 56.9 (3×), 35.4, 36.8, 46.3, 51.6, 30.8, 39.5, 28.4, 27.4, 27.5, 26.4, 39.6, 33.8% and active: -19.3%” and the growth ([2]; runs of 2013) was “inactive: 37.6, 31.9, 33.4, 32.2, 43.4, 43.8, 39.6, 40.3, 38.3, 46.5, 49.1, 56.8, 68.4, 47.3, 47.9, 58.2, 38.7, 65.8, 62.7, 36, 52.3, 54.6, 49.2, 41.8, 38.5, 46.7, 46.9 (2×), 37.9, 56.4, 54.9, 64.9, 60.8, 45.2, 42.3 (2×), 33.2, 47.8, 44.5, 67.9, 70.8, 63.4, 55.9, 53.9 (2×), 68, 50.1, 26.1, 62.4, 24.8, 39, 17.6, 55.4 (2×), 51.8, 38, 49.5, 28.3, 30.8, 54, 33.3, 33.7, 60.3, 39.3, 49.6, 49.8, 43.1, 58.9, 57.6, 58.8, 59.6, 63.3, 24.9% and active: 7.49%”. For the same compound, the growth ([2]; runs of 2014) was “inactive: 61.4, 48.5 (2×), 55.5, 45.9, 51.2 (2×), 56.9, 55.4, 52.1, 61.2, 59.8, 54.4, 61.1, 61.9, 58.1, 59.1, 68, 69.8, 54.1 (2×), 59, 53.4 (2×), 52.6, 56.2, 52.4, 56.5, 53, 60.7 (2×), 67.4, 53.2, 64.3, 60.4, 40.1, 39.1, 34.8, 57.3, 57.9, 44.5 (2×), 22.9, 39.3, 40.8, 46.6, 39.2, 44, 47.9, 45.4, 49.5, 47.2, 47.6, 50, 49.2, 45.1, 42.3, 42.6, 45, 47.3, 52.2, 54.5, 50.9, 41.4, 46.7, 49.3, 48.3, 55.6, 59.6, 47.7, 50.1, 50.6, 42.7%”, the growth ([2]; runs of 2015) was “inactive: 50.5, 48.8, 51.2 (3×), 50.9, 50.2, 40.6, 40.4, 46.5 (2×), 34.7, 33.7, 30.3, 28, 33.8, 31.2, 31.3, 35, 39.3, 37.4, 41.3, 58.9, 46.4, 44.1 (2×), 48, 39.5, 49.7, 47, 39.6, 43.8 (2×), 46.3, 48.4, 34.9 (2×), 45, 44.5, 43, 51.8 (2×), 44.2, 40.5, 45.3, 50.1 (2×), 37.1, 37.3, 35.3, 41.1, 31.8, 58.6, 41.9, 42, 54.4 (2×), 43.9, 36.4, 54.9, 54.5, 53.3, 56.2, 38, 50.7, 49.8, 56.7, 64.1, 64.5, 63.4%” and the growth ([2]; runs of 2016) was “inactive: 45.9 (2×), 42, 49.1, 52.1, 60.5, 40.7, 37.9, 41.6 (2×), 45.2, 48.4, 54.9, 48.3, 45.3, 46.7 (2×), 44.9 (2×), 50.4 (2×), 40.5 (2×), 47.1, 43.2, 41.1 (3×), 42.2, 35.1, 38.7, 51.6, 54.3, 37.3, 36.2, 34.9, 34.5, 33.4, 35.9, 36.5 (3×), 36.3 (2×), 35.2, 30.3 (2×), 35.8, 41.8 (2×), 40.8, 43.5, 37.8, 36, 39.6, 36.4, 36.9, 43.7, 44.3 (3×), 42.8 (2×), 50.6, 43.3, 42.7, 45.1, 35, 42.3, 36.8 (2×), 33, 33.5, 41.7, 43.8, 40.3, 30.9 (3×), 35.3, 37.1, 39, 43, 42.4, 45.4, 42.6%”.

Reference: PubChem BioAssay (NCI)
